T1: RBFOX1 RRM RbFoxmut (Fox-RRM*) (Homo sapiens, UniProt Q9NWB1 109-208, R118D;E147R;N151S;E152T)
T1 sequence: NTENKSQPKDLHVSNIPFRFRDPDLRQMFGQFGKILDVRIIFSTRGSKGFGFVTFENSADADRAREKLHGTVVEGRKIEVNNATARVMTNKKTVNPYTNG

B1: UAUUAUA (DNA:RNA)
RNA: GGGAGACCGGAAUUCAGAUUGUCCUAUUAUAUUAAAUCCCGUCGUAGCCACCA
DNA 1: CAATCTGAATTCCGGTCTCCC
DNA 2: TGGTGGCTACGACGGGATT
B2: AUGACAC (DNA:RNA)
RNA: GGGAGACCGGAAUUCAGAUUGUCCAUGACACUUAAAUCCCGUCGUAGCCACCA
DNA 1: CAATCTGAATTCCGGTCTCCC
DNA 2: TGGTGGCTACGACGGGATT
B3: ACCGAGG (DNA:RNA)
RNA: B2 RNA with U26C, G27C, A28G, C29A, A30G, C31G
DNA 1: CAATCTGAATTCCGGTCTCCC
DNA 2: TGGTGGCTACGACGGGATT
B4: CCAGAUC (DNA:RNA)
RNA: B1 RNA with U25C, A26C, U27A, U28G, A31C
DNA 1: CAATCTGAATTCCGGTCTCCC
DNA 2: TGGTGGCTACGACGGGATT
B5: ACGAGAA (DNA:RNA)
RNA: B2 RNA with U26C, C29G, C31A
DNA 1: CAATCTGAATTCCGGTCTCCC
DNA 2: TGGTGGCTACGACGGGATT
B6: UGCUUAG (DNA:RNA)
RNA: B1 RNA with A26G, U27C, A29U, U30A, A31G
DNA 1: CAATCTGAATTCCGGTCTCCC
DNA 2: TGGTGGCTACGACGGGATT
B7: CGUCCGA (DNA:RNA)
RNA: B1 RNA with U25C, A26G, U28C, A29C, U30G
DNA 1: CAATCTGAATTCCGGTCTCCC
DNA 2: TGGTGGCTACGACGGGATT
B8: GGAAAAC (DNA:RNA)
RNA: B2 RNA with A25G, U26G, G27A, C29A
DNA 1: CAATCTGAATTCCGGTCTCCC
DNA 2: TGGTGGCTACGACGGGATT
B9: UAAUCUC (DNA:RNA)
RNA: B1 RNA with U27A, A29C, A31C
DNA 1: CAATCTGAATTCCGGTCTCCC
DNA 2: TGGTGGCTACGACGGGATT
B10: GCCAUAA (DNA:RNA)
RNA: B2 RNA with A25G, U26C, G27C, C29U, C31A
DNA 1: CAATCTGAATTCCGGTCTCCC
DNA 2: TGGTGGCTACGACGGGATT
B11: CCUAGGG (DNA:RNA)
RNA: B2 RNA with A25C, U26C, G27U, C29G, A30G, C31G
DNA 1: CAATCTGAATTCCGGTCTCCC
DNA 2: TGGTGGCTACGACGGGATT
B12: UUGAUCU (DNA:RNA)
RNA: B2 RNA with A25U, C29U, A30C, C31U
DNA 1: CAATCTGAATTCCGGTCTCCC
DNA 2: TGGTGGCTACGACGGGATT
B13: UUGGGUC (DNA:RNA)
RNA: B2 RNA with A25U, A28G, C29G, A30U
DNA 1: CAATCTGAATTCCGGTCTCCC
DNA 2: TGGTGGCTACGACGGGATT
B14: ACUAUAG (DNA:RNA)
RNA: B2 RNA with U26C, G27U, C29U, C31G
DNA 1: CAATCTGAATTCCGGTCTCCC
DNA 2: TGGTGGCTACGACGGGATT
B15: GAAUUAC (DNA:RNA)
RNA: B2 RNA with A25G, U26A, G27A, A28U, C29U
DNA 1: CAATCTGAATTCCGGTCTCCC
DNA 2: TGGTGGCTACGACGGGATT
B16: UUUGUUC (DNA:RNA)
RNA: B1 RNA with A26U, U28G, A29U, A31C
DNA 1: CAATCTGAATTCCGGTCTCCC
DNA 2: TGGTGGCTACGACGGGATT
B17: ACUGUCC (DNA:RNA)
RNA: B2 RNA with U26C, G27U, A28G, C29U, A30C
DNA 1: CAATCTGAATTCCGGTCTCCC
DNA 2: TGGTGGCTACGACGGGATT
B18: UAUAUCG (DNA:RNA)
RNA: B1 RNA with U28A, A29U, U30C, A31G
DNA 1: CAATCTGAATTCCGGTCTCCC
DNA 2: TGGTGGCTACGACGGGATT
B19: UUGUAGG (DNA:RNA)
RNA: B1 RNA with A26U, U27G, U30G, A31G
DNA 1: CAATCTGAATTCCGGTCTCCC
DNA 2: TGGTGGCTACGACGGGATT
B20: UAAGUUA (DNA:RNA)
RNA: B1 RNA with U27A, U28G, A29U
DNA 1: CAATCTGAATTCCGGTCTCCC
DNA 2: TGGTGGCTACGACGGGATT

Changes are numbered by the printed parent chain; changes in the protein carry UniProt numbers. The list shows a part of the results.

In this assay the target is T1, RBFOX1 RRM RbFoxmut (Fox-RRM*). Kind of assay: EMSA; HiTS-Eq, 1 nM pool, 10 min; buffer printed only for the single-RNA assays: 10 mM Tris pH 7.5, 150 mM NaCl, 3.4 mM EDTA, 0.001% NP-40, 30 C. The conditions noted are these: tags: His6 N-terminal (pET28a); label: 5' 32P. A digest of the protocol:
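Purified RbFox RRM, wild type or mutant, was incubated for 10 min in 50 µL with 1 nM of a 5′-radiolabelled RNA pool carrying 7 randomized nucleotides, whose flanks were annealed to DNA oligonucleotides, over a series of increasing protein concentrations. Unbound RNA was resolved on 8% native PAGE, cut out, reverse-transcribed, barcoded by PCR and sequenced on an Illumina HiSeq 2500. Relative association constants were derived from changes in read counts for each RNA species versus the control reaction and normalised to the cognate motif.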
As to B1, the binding signal was 0.14 KA relative to UGCAUGU.

Turning to B2, the binding signal is 0.0498 KA relative to UGCAUGU.

As for B3, the binding signal was 0.0689 KA relative to UGCAUGU.

With B4, the binding signal was 0.0639 KA relative to UGCAUGU.

B5: the binding signal was 0.105 KA relative to UGCAUGU.

For B6, the binding signal was 0.136 KA relative to UGCAUGU.

As for B7, the binding signal is 0.0926 KA relative to UGCAUGU.

B8: the binding signal was 0.0538 KA relative to UGCAUGU.

Consider B9, for which the binding signal was 0.0855 KA relative to UGCAUGU.

B10: the binding signal was 0.119 KA relative to UGCAUGU.

Take B11: the binding signal was 0.0668 KA relative to UGCAUGU.

B12: the binding signal is 0.0666 KA relative to UGCAUGU.

B13: the binding signal is 0.179 KA relative to UGCAUGU.

B14: the binding signal was 0.128 KA relative to UGCAUGU.

In the case of B15, the binding signal is 0.117 KA relative to UGCAUGU.

Take B16: the binding signal was 0.0935 KA relative to UGCAUGU.

Take B17: the binding signal was 0.0738 KA relative to UGCAUGU.

Consider B18, for which the binding signal was 0.0776 KA relative to UGCAUGU.

On to B19, for which the binding signal was 0.108 KA relative to UGCAUGU.

With B20, the binding signal was 0.115 KA relative to UGCAUGU.

These data come from paper PMC9911399, “Two distinct binding modes provide the RNA-binding protein RbFox with extraordinary sequence specificity”.
